In article PMC10880305:
Like-named read-outs stand apart in the source and are kept apart here. Results are given in words; binding and its absence hold for the method and conditions named. For some of these results: Binding seen in cells or lysates may run through a third protein. Some binding calls cover weakened binding; strength is not graded here. For some of these results: Sequences can lack the tags named with a protein.

Protein sequences, listed by entry. Tags and fused reporters are not part of them. Lines headed by an entry give the natural chain unless they say otherwise; changes in a name come on top. Residues count along the entry.
UniProt Q8N6T3: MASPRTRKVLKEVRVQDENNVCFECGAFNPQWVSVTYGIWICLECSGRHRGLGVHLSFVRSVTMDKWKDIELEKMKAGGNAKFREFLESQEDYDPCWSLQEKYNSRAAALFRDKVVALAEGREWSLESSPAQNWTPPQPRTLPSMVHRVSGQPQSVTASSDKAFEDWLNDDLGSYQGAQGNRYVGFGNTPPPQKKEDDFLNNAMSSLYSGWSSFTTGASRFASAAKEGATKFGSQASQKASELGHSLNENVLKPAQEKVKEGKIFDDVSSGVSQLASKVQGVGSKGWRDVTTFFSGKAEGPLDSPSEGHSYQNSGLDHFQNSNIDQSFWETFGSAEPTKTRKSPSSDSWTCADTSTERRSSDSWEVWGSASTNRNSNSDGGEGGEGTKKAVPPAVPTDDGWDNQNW
UniProt P09471: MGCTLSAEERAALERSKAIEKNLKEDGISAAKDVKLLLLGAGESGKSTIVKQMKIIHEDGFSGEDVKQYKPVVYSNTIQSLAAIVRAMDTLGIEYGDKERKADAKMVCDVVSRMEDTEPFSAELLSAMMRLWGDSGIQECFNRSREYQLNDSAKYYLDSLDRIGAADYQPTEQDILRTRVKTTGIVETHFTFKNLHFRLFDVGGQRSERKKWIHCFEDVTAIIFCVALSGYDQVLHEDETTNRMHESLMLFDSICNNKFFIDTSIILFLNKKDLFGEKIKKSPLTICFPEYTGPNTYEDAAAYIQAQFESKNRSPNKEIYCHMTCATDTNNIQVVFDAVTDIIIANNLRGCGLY
UniProt P63092: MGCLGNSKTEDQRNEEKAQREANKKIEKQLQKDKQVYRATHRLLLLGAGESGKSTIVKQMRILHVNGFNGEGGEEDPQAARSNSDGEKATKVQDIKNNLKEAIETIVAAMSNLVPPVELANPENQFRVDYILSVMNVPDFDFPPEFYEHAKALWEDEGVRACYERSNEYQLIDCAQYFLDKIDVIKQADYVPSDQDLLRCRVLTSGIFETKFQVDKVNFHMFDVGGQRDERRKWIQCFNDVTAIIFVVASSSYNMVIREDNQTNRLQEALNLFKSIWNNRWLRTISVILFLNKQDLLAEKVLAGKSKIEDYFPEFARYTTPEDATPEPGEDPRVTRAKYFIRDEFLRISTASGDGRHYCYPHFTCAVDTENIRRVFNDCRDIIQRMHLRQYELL
UniProt P50148: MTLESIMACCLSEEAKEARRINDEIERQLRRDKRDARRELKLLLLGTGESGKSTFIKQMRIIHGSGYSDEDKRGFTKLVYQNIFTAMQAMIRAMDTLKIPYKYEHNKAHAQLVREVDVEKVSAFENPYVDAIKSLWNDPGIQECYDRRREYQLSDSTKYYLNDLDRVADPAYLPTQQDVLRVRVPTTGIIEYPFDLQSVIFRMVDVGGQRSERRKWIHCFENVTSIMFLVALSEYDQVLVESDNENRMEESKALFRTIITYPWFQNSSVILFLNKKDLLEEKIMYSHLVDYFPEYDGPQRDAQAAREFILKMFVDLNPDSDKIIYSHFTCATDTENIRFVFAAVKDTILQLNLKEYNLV
UniProt Q9H3P7: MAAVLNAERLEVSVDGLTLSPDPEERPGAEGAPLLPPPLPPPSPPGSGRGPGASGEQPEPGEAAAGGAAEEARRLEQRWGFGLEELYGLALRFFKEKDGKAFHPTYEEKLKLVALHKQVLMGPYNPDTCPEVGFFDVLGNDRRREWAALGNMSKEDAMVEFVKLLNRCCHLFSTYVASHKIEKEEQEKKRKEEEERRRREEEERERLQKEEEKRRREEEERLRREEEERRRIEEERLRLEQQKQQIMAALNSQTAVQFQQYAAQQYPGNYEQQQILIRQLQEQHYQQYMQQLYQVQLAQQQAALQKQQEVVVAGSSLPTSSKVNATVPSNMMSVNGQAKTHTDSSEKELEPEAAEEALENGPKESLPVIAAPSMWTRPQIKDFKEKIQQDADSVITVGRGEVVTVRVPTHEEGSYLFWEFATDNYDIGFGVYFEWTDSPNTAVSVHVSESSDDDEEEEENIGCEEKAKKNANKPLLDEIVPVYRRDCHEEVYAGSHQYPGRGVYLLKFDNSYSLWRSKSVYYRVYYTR
UniProt P17301, residues 30-1181: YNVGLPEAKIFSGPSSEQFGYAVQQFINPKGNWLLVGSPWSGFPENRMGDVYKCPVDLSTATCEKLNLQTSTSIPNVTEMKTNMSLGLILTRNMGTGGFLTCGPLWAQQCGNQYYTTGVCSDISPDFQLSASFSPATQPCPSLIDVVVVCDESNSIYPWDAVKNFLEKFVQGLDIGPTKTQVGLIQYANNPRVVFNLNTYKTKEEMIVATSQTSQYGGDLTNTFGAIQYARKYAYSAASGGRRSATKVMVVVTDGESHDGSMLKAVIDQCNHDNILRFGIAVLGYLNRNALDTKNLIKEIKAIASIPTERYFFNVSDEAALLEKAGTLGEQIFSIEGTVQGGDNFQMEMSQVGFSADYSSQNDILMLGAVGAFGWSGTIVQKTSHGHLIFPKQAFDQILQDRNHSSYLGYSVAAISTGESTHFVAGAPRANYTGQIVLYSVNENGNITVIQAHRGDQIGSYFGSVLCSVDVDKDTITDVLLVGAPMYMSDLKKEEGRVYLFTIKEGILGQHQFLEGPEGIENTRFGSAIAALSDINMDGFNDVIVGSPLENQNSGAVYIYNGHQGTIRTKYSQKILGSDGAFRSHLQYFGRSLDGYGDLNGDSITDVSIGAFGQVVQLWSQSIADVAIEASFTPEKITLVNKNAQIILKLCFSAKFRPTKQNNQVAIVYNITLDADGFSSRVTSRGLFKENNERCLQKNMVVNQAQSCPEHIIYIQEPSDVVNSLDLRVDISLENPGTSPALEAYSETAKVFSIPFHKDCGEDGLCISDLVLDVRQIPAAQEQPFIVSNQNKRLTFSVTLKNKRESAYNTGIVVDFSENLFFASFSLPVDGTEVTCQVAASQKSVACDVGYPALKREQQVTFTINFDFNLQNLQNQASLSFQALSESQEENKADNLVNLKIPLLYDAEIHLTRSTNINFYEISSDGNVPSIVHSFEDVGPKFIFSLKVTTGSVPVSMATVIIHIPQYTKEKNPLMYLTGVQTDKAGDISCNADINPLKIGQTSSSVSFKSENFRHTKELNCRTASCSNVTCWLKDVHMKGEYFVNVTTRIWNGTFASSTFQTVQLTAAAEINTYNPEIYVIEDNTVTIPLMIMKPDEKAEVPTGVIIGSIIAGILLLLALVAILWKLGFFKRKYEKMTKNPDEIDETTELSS

Columns and labels:
KDELR-mCherry (human) = molecular target: T1, KDELR-mCherry (human) (UniProt P24390); assay: co-IP; anti-RFP agarose beads, HeLa lysates (20 mM HEPES pH 7.4, 100 mM NaCl, 2 mM DDM, 0.02% CHS), 4 h at 4 °C, western blot of endogenous partners
T1 sequence: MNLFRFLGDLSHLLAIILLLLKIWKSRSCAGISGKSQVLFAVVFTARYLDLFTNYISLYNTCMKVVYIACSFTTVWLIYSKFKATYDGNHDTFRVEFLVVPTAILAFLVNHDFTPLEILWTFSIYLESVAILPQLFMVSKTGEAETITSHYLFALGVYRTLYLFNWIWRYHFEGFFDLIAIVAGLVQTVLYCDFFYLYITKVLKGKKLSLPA

[1] = molecular target: T2, endogenously Flag-mCherry tagged KDELR (human (endogenous in HeLa)) (UniProt P24390); assay: as above
T2 sequence: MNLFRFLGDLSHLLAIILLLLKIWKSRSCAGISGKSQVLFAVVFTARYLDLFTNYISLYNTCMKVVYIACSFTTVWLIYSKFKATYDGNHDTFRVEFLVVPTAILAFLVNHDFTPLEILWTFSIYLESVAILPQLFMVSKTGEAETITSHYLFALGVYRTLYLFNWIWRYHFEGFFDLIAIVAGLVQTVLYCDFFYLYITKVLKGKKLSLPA

[2] = molecular target: T3, GST tagged KDELR C tail (human) (UniProt P24390); assay: pull-down; 100 ug GST fusion protein on glutathione Sepharose 4B incubated with cell lysate (A431 by results and legend) at 4 °C for 1 h, immunoblot; only the target purified
T3 sequence: GKKLSLPA

[3] = molecular target: T4, Halo-KDELR-Flag-VN (human) (UniProt P24390); assay: split reporter; split Venus: HeLa cells co-transfected with Halo-KDELR-flag-VN and Gα-myc-VC or Gα-GDP-myc-VC for 18 h, confocal microscopy
T4 sequence: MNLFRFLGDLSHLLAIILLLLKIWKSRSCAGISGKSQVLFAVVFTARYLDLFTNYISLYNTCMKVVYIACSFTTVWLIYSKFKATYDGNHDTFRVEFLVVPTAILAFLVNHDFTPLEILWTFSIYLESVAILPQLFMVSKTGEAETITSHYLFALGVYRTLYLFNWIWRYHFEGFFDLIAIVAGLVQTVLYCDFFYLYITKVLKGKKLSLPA

KDELR-Cub (human) [4] = molecular target: T5, KDELR-Cub (human) (UniProt P24390); assay: two-hybrid; split-ubiquitin membrane yeast two-hybrid (MYTH), NMY51 yeast; KDELR-Cub-LexA-VP16 bait, NubG preys; growth on SD/-Ade/-Leu/-Trp/-His with X-α-Gal
T5 sequence: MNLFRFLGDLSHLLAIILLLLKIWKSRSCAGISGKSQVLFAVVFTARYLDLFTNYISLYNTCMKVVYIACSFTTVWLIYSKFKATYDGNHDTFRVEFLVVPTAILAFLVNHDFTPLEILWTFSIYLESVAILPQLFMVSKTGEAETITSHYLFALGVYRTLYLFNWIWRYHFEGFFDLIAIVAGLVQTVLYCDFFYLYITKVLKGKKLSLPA

Halo-KDELR-V5-VN (human) = molecular target: T6, Halo-KDELR-V5-VN (human) (UniProt P24390); assay: split reporter; split Venus of two differently tagged copies in HeLa cells (EGFR-myc-VC/EGFR-Flag-VN; Halo-KDELR-V5-VN/Halo-KDELR-myc-VC), 50 μM TAEKDEL peptide, 30 nM EGF or DMSO, 0 or 30 min at 37 °C, confocal microscopy
T6 sequence: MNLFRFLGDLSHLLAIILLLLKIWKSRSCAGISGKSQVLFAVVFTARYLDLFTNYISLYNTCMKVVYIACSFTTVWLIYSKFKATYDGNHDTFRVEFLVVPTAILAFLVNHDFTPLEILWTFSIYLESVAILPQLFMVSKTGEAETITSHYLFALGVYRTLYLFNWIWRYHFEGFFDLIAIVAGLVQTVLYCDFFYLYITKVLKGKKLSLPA

KDELR-Cub (human) [5] = molecular target: T5, KDELR-Cub (human); assay: two-hybrid; split-ubiquitin membrane yeast two-hybrid (MYTH), NMY51 yeast; KDELR-Cub-LexA-VP16 bait, NubG preys; growth on SD/-Ade/-Leu/-Trp/-His with X-α-Gal; remark: listed apart in the source

**Q.** How did the binding (KDELR-mCherry (human)) turn out when “ArfGAP1 (endogenous, HeLa) (from UniProt Q8N6T3 1-406)” was run?
**A.** binds

**Q.** And the binding [1]?
**A.** binds

**Q.** “ArfGAP1 (endogenous, A431) (from UniProt Q8N6T3 1-406)” was tested. Which binding [2] did it give?
**A.** binds

**Q.** Which binding [3] does the source give for “Gαo-S47C-myc-VC (from UniProt P09471 1-354)” here?
**A.** no binding

**Q.** Which binding [3] does the source give for “Gαs-S54C-myc-VC (from UniProt P63092 1-394)” here?
**A.** no binding

**Q.** Which binding [3] does the source give for Gαq-myc-VC (from UniProt P50148 1-359) here?
**A.** no binding

**Q.** For “Gαq-S53C-myc-VC (from UniProt P50148 1-359)”, which binding [3] is on record?
**A.** no binding

**Q.** NubG-ACBD3 (from UniProt Q9H3P7 1-528) was tested. Which binding (KDELR-Cub (human) [4]) did it give?
**A.** binds

**Q.** What does the source list for “integrin α2 (endogenous, HeLa) (from UniProt P17301 30-1181)”?
**A.** binding (KDELR-mCherry (human)): no binding; binding [1]: no binding

**Q.** With Gαo-myc-VC (from UniProt P09471 1-354) as the molecule, how does the binding [3] read?
**A.** no binding

B1: Halo-KDELR-V5-VN (receptor, UniProt P24390 1-212)
chain: MNLFRFLGDLSHLLAIILLLLKIWKSRSCAGISGKSQVLFAVVFTARYLDLFTNYISLYNTCMKVVYIACSFTTVWLIYSKFKATYDGNHDTFRVEFLVVPTAILAFLVNHDFTPLEILWTFSIYLESVAILPQLFMVSKTGEAETITSHYLFALGVYRTLYLFNWIWRYHFEGFFDLIAIVAGLVQTVLYCDFFYLYITKVLKGKKLSLPA
**Q.** With B1 as the molecule, how does the binding (Halo-KDELR-V5-VN (human)) read?
**A.** binds

B2: NubG-GLUT4 (protein, UniProt P14672 1-509)
chain: MPSGFQQIGSEDGEPPQQRVTGTLVLAVFSAVLGSLQFGYNIGVINAPQKVIEQSYNETWLGRQGPEGPSSIPPGTLTTLWALSVAIFSVGGMISSFLIGIISQWLGRKRAMLVNNVLAVLGGSLMGLANAAASYEMLILGRFLIGAYSGLTSGLVPMYVGEIAPTHLRGALGTLNQLAIVIGILIAQVLGLESLLGTASLWPLLLGLTVLPALLQLVLLPFCPESPRYLYIIQNLEGPARKSLKRLTGWADVSGVLAELKDEKRKLERERPLSLLQLLGSRTHRQPLIIAVVLQLSQQLSGINAVFYYSTSIFETAGVGQPAYATIGAGVVNTVFTLVSVLLVERAGRRTLHLLGLAGMCGCAILMTVALLLLERVPAMSYVSIVAIFGFVAFFEIGPGPIPWFIVAELFSQGPRPAAMAVAGFSNWTSNFIIGMGFQYVAEAMGPYVFLLFAVLLLGFFIFTFLRVPETRGRTFDQISAAFHRTPSLLEQEVKPSTELEYLGPDEND
**Q.** Which binding (KDELR-Cub (human) [5]) does the source give for B2 here?
**A.** no binding
